# Experimental data published in publication PMC10726135.
# Some of the results follow. At the low end of the ranking, values are background and their order means little. The protein was read in a cell extract, so binding may be indirect.
# Target: T1, HNF4alpha2 (COS-7 nuclear extract) (UniProt P41235)
# T1 sequence: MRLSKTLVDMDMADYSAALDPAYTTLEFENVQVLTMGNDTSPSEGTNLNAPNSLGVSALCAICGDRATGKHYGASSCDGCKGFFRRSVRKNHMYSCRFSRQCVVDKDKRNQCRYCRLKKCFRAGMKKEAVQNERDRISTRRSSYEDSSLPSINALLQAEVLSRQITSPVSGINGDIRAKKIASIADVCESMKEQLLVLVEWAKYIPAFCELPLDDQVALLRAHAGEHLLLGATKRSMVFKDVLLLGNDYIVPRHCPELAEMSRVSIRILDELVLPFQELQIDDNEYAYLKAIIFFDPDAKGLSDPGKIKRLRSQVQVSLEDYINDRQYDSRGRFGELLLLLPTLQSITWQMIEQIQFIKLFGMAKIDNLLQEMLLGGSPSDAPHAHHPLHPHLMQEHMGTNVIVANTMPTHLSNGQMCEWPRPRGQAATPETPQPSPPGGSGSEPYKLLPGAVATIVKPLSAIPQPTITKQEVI
# Experiment: protein-binding microarray
# Conditions: COS-7 nuclear extract on double-stranded Agilent 4x180k PBM; binding buffer, salt, pH and temperature not given; high values mean tight binding; double strand, one strand shown; sequences stand for … in …GCCTAGGGAGATTAGAGTATCGGTCGA
row,Sequence,binding signal (log2 normalized intensity)
1,GGCGTTGACTGATCCCTCTGGAGGCTCTCT,-0.968
2,AACTTACGCACATTACTTTGATTGGAAAAA,0.829
3,ACCCAAGGGATGGCATCACCTTTGGTCAGC,3.28
4,ATTAATCAAGGCTGCCTGGCAGGGTGGGGT,-0.418
5,TGCCTGTGTGTTCTGCTATTCATTACAGAT,1.74
6,ATTGACAAAGACCAGTGCTCTTTCTTCTCT,-0.734
7,CTTAGGCCTCCCAGAACGTGGCCTTTAATC,2.15
8,TTACTAAAGTTAGAATGTGCTGGATGTTTC,1.01
9,ATGGGTCTGGGATGTTGGGAGGAGTGGACT,2.38
10,CCTTTCAAGGGCTTACAACTCTAAGGGGGA,-1.15
11,AGGTCTACCAGGAATATTGCCCCCTAATGG,2.98
12,AACATGGACTTTGTTGTTTGCCTCTGAAAA,2.31
13,TGACCATCCCAAAGCTTTTTGATTGCTTAT,-1.12
14,TTGCTCTGCATGGATTAGCCAGCTATGATA,-1.04
15,CACAAATACTATTCATCCTCCAAAACCCAG,1.51
16,CAGGATGTTTTCTCTAGCGCTTATCAGATG,0.202
17,ACCTGAACTTTGCTCTGTGACACAAAGAAG,2.76
18,AAAAAAAAAAATTACTGACCCTTGCACTGT,4.58
19,ATTCCTATCGGTCACCATAAAACATTCTAT,-0.638
20,ACTGCAATAAAGTGGGTTGAAGTTCTCCCT,-0.374
21,CGGGGTCAGGCCGTGGTGTATGATGACGCC,1.01
22,AAGAAACTCGTGGCATTTTTGCCCCTGCCC,3.21
23,CCAACGCCTCCCTCCTTCCGCGGACGTGTT,1.28
24,CTTCATCTGGAGACAAATGCTTTTGAACAC,1.27

row,Sequence,binding signal (log2 normalized intensity)
1,TACCAGGCAGTCGTGATAGTGACCACCTGG,-0.182
2,TCATCCAAAGACTAATGCATTCCCAGCAAG,-1.11
3,GTCCCTGGCCCCGGGGCGGGGGCGGGCTGG,-1.01
4,CTATTCTGTAACACAGTTGCACTCACTAGC,-1.12
5,CCTGCTTCCAGGCTTGTACCTTGACCTTCT,6.62
6,CCCAGACCGCCATAACTCAGCGGGAGGCAA,-0.992
7,ATTCCAGTGTTTCAAAGGAGTGTCTTTCTC,1.43
8,AGATCAAAGAGAAAGTAAGTGCACAGCCAG,-1.21
9,CCTCTTTGCGGATAGATATGTTGAAGTGAC,1.74
10,TGGCTGGCCATGAGTGAGCACTTAACAAAT,-1.02
11,TTCAGCCAGATTCTCTCACTGCTCTGGCCA,-1.32
12,TAACACCTGCCTTAGAAAGAGGGTGTAAGA,-1.07
13,AGCTTTACTAAAACAGGGAGCAGGCAGATT,-1.13
14,CATGCCCCAGATGCCCAGCAGAGGGAGCCG,1.54
15,TAGCTGAGTTGACCTGTGTTGACAGATGAA,2.22
16,TTGTTTTTGCTTGGAATGCCCTTATCTCAT,2.32
17,GGGCTCCCGGACCCTGACTCTGCAGCCGAA,-1.24
18,TGGAGAGCAGATGCTTCCCAGAAAGAATGA,-1.08
19,ATGTCACAGGGATTACGATCCTGCCCTTCT,1.9
20,ACGGTTTCGTGGGGACCCAGGCTTGCAAAG,-1.14
21,ATCTCACACAGTACTTTGTACATGGGAATA,1.32
22,CTGGACAGAGATAAGGTAGGCACGTAAATA,-1.19
23,TACGTGACCTACTTAGTCTCCAGCCCCCAG,4.02
24,GCTTCCCTAGCAACCTCCACATTGCAACAA,-1.08

row,Sequence,binding signal (log2 normalized intensity)
1,GCCGGACCGGCCAAACTGGTTTCTCCGCTC,-1.19
2,GGCATCCCTGCCGTGGCTGGAACTCCTCCG,-1.15
3,AAGACTTTATTTGAAGAAATGGTGGACTTT,6
4,ACTTGACAAATGGGGCAGCTGGGGCCCAGG,-1.08
5,TAGGACTCTAGTGTTCTCTTTGTGCTTTTT,1.72
6,TCTCAGGTGGGCAGAGGCCTGATGGTGAGT,-0.39
7,AAGGGGGCAAAGGGCATGGGCAGCTTTGAA,4.56
8,TGAGGCAAGCAAAAGCCAAGGCATCTGGGG,-1.08
9,GGGGGGTTGTTTTTAAAAGGCTGCCTTTCC,0.0995
10,TCTGCTGAGTATCCAAAGGTCAGTGACAAA,4.12
11,GTTTCCTAGTTCAAACAGGCCCTCCTCCTC,0.368
12,TAGAACACTTTCCACTCTCTACTGATATGT,1.12
13,GATACCATCAGATACCTACTCTGCTCTTCT,-1.13
14,CATTGACTGAGATAGATAAGGCTGAGTGGA,-0.735
15,AGTCCAGACAAGTCCCAAGTATTTTCAGCC,-0.962
16,CAAACGGATATTTGATCAAAGGTCAGCTCT,5.04
17,TTGGATATCATATCATCTTCCCTGTTCAAA,1.78
18,ATGGGACCTTTGCCCTTCTTGTTAACCTCC,3.94
19,GTCCAAAGTCTCAACTAAGTGTTATCTAAA,1.28
20,AGACAAGATATGAGGCCAGTTTTCCCAAAG,-1.13
21,CTATTGTCCTATGACCCTGCCAAATCCCCC,4.52
22,GGTCTTCTAGAAACAACACACCTTGCCACC,-1.09
23,AGCATGGAGAAAATTCTGGACCTTCTTATC,0.911
24,GTAACATTCCTAGATATCAGGAAGGTCAGA,1.26
